Measurements: PubChem BioAssay AID2147 (National Center for Advancing Translational Sciences (NCATS), 2009)
Several values for one entry are separate records, joined by “and”; a condition that tells them apart may be missing. Equal entries are not always repeated. The campaign covered roughly 230,000 compounds. About 3,600 (1.6%) were called active. This list was built around the results that the source calls inconclusive (neither active nor inactive); the mix of calls is not that of the screen. The call rests on the fitted dose curve; in most records, active means well fitted inhibition curve with a large enough effect (not every such curve was filed as active); inconclusive means small, poorly fitted or top-dose-only effect, or another doubt; inactive means no such curve, though single readings can be large or run the other way. Potencies beside an inconclusive call are fits to weak or partial responses and may not hold up.

Target: Lysine-specific demethylase 4E (Homo sapiens) (UniProt B2RXH2)
Sequence of UniProt B2RXH2 (B2RXH2 whole entry, looked up, the tested form may be a part): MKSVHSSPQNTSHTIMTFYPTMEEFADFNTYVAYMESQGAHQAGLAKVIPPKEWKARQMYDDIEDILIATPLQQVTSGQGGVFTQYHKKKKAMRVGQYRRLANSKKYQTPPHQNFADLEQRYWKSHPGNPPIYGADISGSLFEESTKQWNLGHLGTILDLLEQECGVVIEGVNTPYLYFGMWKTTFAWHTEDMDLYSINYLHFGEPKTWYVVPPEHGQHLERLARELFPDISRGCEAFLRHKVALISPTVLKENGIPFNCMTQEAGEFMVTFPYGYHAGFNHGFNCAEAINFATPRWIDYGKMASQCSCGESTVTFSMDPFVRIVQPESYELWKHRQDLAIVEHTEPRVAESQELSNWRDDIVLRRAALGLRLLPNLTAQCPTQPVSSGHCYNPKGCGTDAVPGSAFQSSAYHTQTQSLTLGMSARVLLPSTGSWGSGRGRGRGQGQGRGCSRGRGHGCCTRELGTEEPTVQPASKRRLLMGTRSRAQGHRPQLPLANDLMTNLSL
Test: qHTS Assay for Inhibitors of Human Jumonji Domain Containing 2E (JMJD2E)
Conditions: JMJD2E catalytic domain, FDH-coupled NADH fluorescence (FDH is formaldehyde dehydrogenase); series mostly up to 57.1 µM; activity change, negative = inhibition: at the top concentration
Further: nearly all actives have a fitted effect of over 50% in size.
Potency means the concentration at half of the fitted maximal effect; tags describe the fitted curve by direction and shape.
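Wherever activity change, negative = inhibition is given: 0% = wells with enzyme and -100% = buffer wells without enzyme.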

Row | SMILES | Potency | activity change, negative = inhibition
1 | Cc1cccc(NC(=O)Cc2coc3ccc4ccccc4c23)n1 | inconclusive: 39.8 µM [inhibitor, single point] | –
2 | Cc1cc(C(=O)N/N=C/c2ccc(-c3cccc(Br)c3)o2)n[nH]1 | inconclusive: 28.2 µM [inhibitor, partial curve] | –
3 | CCC(C)Nc1nc(Cl)nc(N(C#N)CN2C(=O)c3ccccc3S2(=O)=O)n1 (configuration not stated) | – | inactive: 14.4%
4 | COc1cc(C(=O)Nc2cc(-c3cn4cccnc4n3)ccc2C)cc(OC)c1OC | inconclusive: 31.6 µM [inhibitor, partial curve] | –
5 | COc1cccc(NC(=O)Nc2cccn(Cc3ccc(C)cc3)c2=O)c1 | inconclusive: 31.6 µM [inhibitor, partial curve] | –
6 | COCCn1c(-c2cccs2)csc1=Nc1cccnc1 | inconclusive: 35.5 µM [inhibitor, single point] | –
7 | COCCNC(=O)COC(=O)c1cc(-c2ccc(OC)cc2)nc2ccccc12 | inconclusive: 25.1 µM [inhibitor, partial curve] | –
8 | CNC(=S)N(CCc1c(C)[nH]c2ccc(Cl)cc12)Cc1cc(OC)c(OC)c(OC)c1 | – | inactive: 2.93%
9 | COc1cccc(/C=C(/C#N)c2ccc(Cl)cc2)c1OCc1cccc(C(=O)O)c1 | inconclusive: 39.8 µM [inhibitor, single point] | –
10 | COc1ccc(CNc2cc(NCCCO)c([N+](=O)[O-])c3nonc23)cc1 | inconclusive: 0.631 µM [inhibitor, partial curve] | –
11 | CCC(=O)Nc1ccc2c(c1)OCCO2 | – | inactive: 1.35%
12 | CCN/N=C(\Cc1nc2ccccc2[nH]1)c1ccccc1 | inconclusive: 31.6 µM [inhibitor, partial curve] | –
13 | CCOC(=O)CSC1=N/C(=C\c2cccnc2)C(=O)N1c1ccc(OC)cc1 | inconclusive: 10 µM [inhibitor, partial curve] | –
14 | Cc1c(-c2cccc(Cl)c2)nc2ccccc2c1C(=O)OC/C(O)=C(\C#N)c1nc2ccccc2[nH]1 | inconclusive: 14.1 µM [inhibitor, partial curve] | –
15 | COc1ccc(/C(CC2(O)C(=O)Nc3ccccc32)=N\O)cc1 (configuration not stated) | inconclusive: 39.8 µM [inhibitor, single point] | –
16 | CCN1CCN(CC(=O)Nc2nc3ccc(OC)cc3s2)CC1 | inconclusive: 28.2 µM [inhibitor, single point] | –
17 | Cc1ccc(NC(=S)Nc2cccc3cnccc23)cc1 | inconclusive: 25.1 µM [inhibitor, single point] | –
18 | CN(Cc1cccc(F)c1)CC(O)COCc1ccccc1Cl (configuration not stated) | inconclusive: 39.8 µM [inhibitor, single point] | –
19 | CC1CCCN(CCCOc2ccccc2-c2ccccc2)C1 (configuration not stated) | inconclusive: 25.1 µM [inhibitor, single point] | –
20 | COC(=O)c1ccc2c(=O)n(CC3CCCO3)c(SCC(=O)NCCc3ccc(S(N)(=O)=O)cc3)nc2c1 (configuration not stated) | inconclusive: 28.2 µM [inhibitor, single point] | –
21 | O=C(CNC(=O)c1cc(=O)[nH]c2ccccc12)Nc1ccc(F)c(F)c1 | inconclusive: 28.2 µM [inhibitor, single point] | –

Row | SMILES | Potency | activity change, negative = inhibition
22 | COc1ccccc1-c1nc(SCC(=O)NCC2CCCO2)c2c(=O)n(C)c(=O)n(C)c2n1 (configuration not stated) | inconclusive: 12.6 µM [inhibitor, partial curve] | –
23 | COc1cc(NC(=O)CSc2nccc(C)n2)c(C(=O)O)cc1OC | inconclusive: 31.6 µM [inhibitor, single point] | –
24 | COC(=O)[C@@]1(Cc2ccc(OC)cc2)[C@H]2c3cc(C(=O)N(C)C)n(CCc4c[nH]c5ccc(O)cc45)c3C[C@H]2CN1C(=O)c1ccccc1 | – | inactive: 5.46%
25 | CCOC(=O)c1c(-c2ccsc2)csc1N | – | inactive: -11.5%
26 | NC1=NC(=O)/C(=C\c2cc([N+](=O)[O-])ccc2Cl)S1 | – | inactive: -4.72%
27 | CC1CC(=O)NN=C1c1ccc(N(C)C)c([N+](=O)[O-])c1 (configuration not stated) | – | inactive: -1.92%
28 | CCCOc1ccc(OCCCCNC(C)CC)cc1 (configuration not stated) | inconclusive: 39.8 µM [inhibitor, single point] | –
29 | CC1(C)S[C@@H]2[C@H](NC(=O)[C@H](N)c3ccccc3)C(=O)N2[C@H]1C(=O)O | inconclusive: 14.1 µM [inhibitor, partial curve] and inconclusive: 28.2 µM [inhibitor, partial curve] | –
30 | CCCCNC(=O)c1ccc2c(OCC)n(CCCC)nc2c1 | inconclusive: 28.2 µM [inhibitor, partial curve] | –
31 | CC(C)(Oc1ccc(Cl)cc1)C(=O)NCc1ccncc1 | – | inactive: -0.431%
32 | N#Cc1ccccc1OCC(=O)NC(=O)NCc1ccco1 | inconclusive: 28.2 µM [inhibitor, single point] | –
33 | Brc1ccc(C2=CC(c3ccco3)n3ncnc3N2)cc1 (configuration not stated) | inconclusive: 28.2 µM [inhibitor, partial curve] | –
34 | Cc1ccc(C(=O)Nc2ccccc2C(=O)O)cc1S(=O)(=O)NCc1ccccc1 | inconclusive: 39.8 µM [inhibitor, single point] | –
35 | CCOC(=O)c1c(C)c(C(=O)NCc2ccc(OC)cc2)c(C)n1C | inconclusive: 39.8 µM [inhibitor, single point] | –
36 | CC(=O)Nc1ccc(Nc2nc(-c3ccccc3)nc3ccccc23)cc1 | inconclusive: 3.98 µM [inhibitor, partial curve] | –
37 | Cc1ccc2nc(-c3ccc(NC(=O)COC(=O)c4ccc([N+](=O)[O-])o4)cc3)sc2c1 | inconclusive: 31.6 µM [inhibitor, partial curve] | –
38 | Cc1ccc(-c2cccc(NC(=O)C3C(C(=O)O)[C@@H]4C=C[C@H]3C4)c2)o1 (some centres not stated) | inconclusive: 25.1 µM [inhibitor, partial curve] | –
39 | C=CCc1cc(/C=C2/NC(=O)N(CC(=O)OC)C2=O)cc(OC)c1O | inconclusive: 35.5 µM [inhibitor, single point] | –
40 | c1cc(CNc2ccc3c(c2)OCO3)ccn1 | inconclusive: 25.1 µM [inhibitor, partial curve] | –
41 | O=C(c1ccccc1)c1coc2c1C(=O)c1ccccc1C2=O | – | inactive: -0.157%
42 | COc1cc(OC)c(NC(=O)CCNC(=O)Cn2ccc3ccccc3c2=O)cc1Cl | inconclusive: 35.5 µM [inhibitor, single point] | –
